Source: US6251949A, “Oxime derivatives, hydrazone derivatives and use thereof” (Shionogi & Co., Ltd., priority 1996, dated 2001)

Legend:
[1] = system: Erysiphe graminis f.sp.tritici; experiment: Controlling effect on wheat powdery mildew by foliage application (pot experiment); details: wheat seedling, 10 days after inoculation
Procedure: (§1) [Controlling effects on various plant diseases by foliage application (pot experiment)]
(§2) A test compound was dissolved in a small amount of N,N-dimethylformamide, and the solution was diluted to a given concentration with distilled water containing a spreader, whereby preparing a liquid sample. The liquid sample was sprayed to each test plant, and after 24 hours each pathogens was inoculated by the method described below.
(§3) A % control was calculated according to the following equation. [formula]
Controlling Effect on Wheat Powdery Mildew Microorganism (Erysiphe graminis f.sp.tritici)
A seed of a wheat (cv.: NORIN No.61) was sown in a plastic cup which was 9 cm in diameter and cultivated for 2 to 3 weeks. The test compound in the form of a solution or suspension was sprayed to a seedling, and conidia of a wheat powdery mildew microorganism (Erysiphe graminis fsp.tritici) cultured on a wheat leaf was dropped on the test plant to inoculate the plant with the pathogen. After the inoculation, the plant was kept in a green house at 20° C. for 10 days. The infected area on the leaf was observed, and the % control was calculated.

[2] = system: Sphaerotheca fuliginea; experiment: Controlling effect on cucumber mildew by foliage application (pot experiment); details: cucumber first leaf, 10 days after inoculation
Procedure: as §1, §2, §3
Controlling effect on cucumber mildew microorganism (Sphaerotheca fuliginea)
A seed of a cucumber (cv.: TSUKUBASHIROIBO) was sown in a plastic cup which was 9 cm in diameter, and cultivated for 2 to 3 weeks. The liquid test sample in the form of a solution or suspension was sprayed on the surface of the first leaf. The pathogen was inoculated to the leaf by spraying a conidia suspension of a cucumber mildew microorganism (Sphaerotheca fuliginea) which had been cultured on a cucumber leaf. After the inoculation, the plant was kept in a greenhouse at 20° C. for 10 days. Then, the infected area on the leaf was observed, and the % control was calculated.

SMILES	Controlling effect on wheat powdery mildew microorganism (Erysiphe graminis f.sp.tritici) by foliage application at 500 ppm (% control) [1] [%]	Controlling effect on cucumber mildew microorganism (Sphaerotheca fuliginea) by foliage application at 500 ppm (% control) [2] [%]
C=CCON=C(C)C(=NOCc1ccc(Cl)c(Cl)c1)C(=O)N(C)C [Compound C-96]	90	
CON=C(C(=O)N(C)C)C(C)=NOCc1ccccc1 [Compound C-176]	90	
OC(c1ccc(Cl)cc1)(c1cncnc1)c1ccccc1Cl (stereo not drawn) [Fenarimol, reference compound]	97	100
C=CCON=C(C(=O)N(C)C)C(CC)=NOCc1ccccc1 [Compound C-780]	90	97
CON=C(C(=O)N(C)C)C(C)=NOCc1cccc(Cl)c1 [Compound C-276]	90	
C=CCON=C(C(=O)N(C)C)C(C)=NOCc1ccccc1 [Compound C-180]	90	100
CON=C(C(=O)N(C)C)C(C)=NOCc1ccccc1Cl [Compound C-251]	90	
C=CCON=C(C(=O)N(C)OC)C(C)=NOCc1ccccc1 [Compound F-180]	90	100
CON=C(C)C(=NOCc1ccccc1Cl)C(=O)N(C)C [Compound C-11]	90	
CNC(=O)C(=NOC)C(C)=NOCc1ccc(Cl)c(Cl)c1 [Compound B-476]		100
C=CCON=C(C)C(=NOCc1ccccc1Cl)C(=O)N(C)C [Compound C-86]	90	
